In PubChem BioAssay AID686979 (National Center for Advancing Translational Sciences (NCATS), 2013):
Several values for one entry are separate records, joined by “and”; a condition that tells them apart may be missing. Identical values can stand only once. Among all 420,000 compounds or so, about 50,000 (12%) were called active. The inconclusive results got no clear call from the source; some entries with a clear call stand among them for comparison. The call rests on the fitted dose curve; in most records, active means well fitted inhibition curve with a large enough effect; inconclusive means small, poorly fitted or top-dose-only effect; inactive means flat fitted curve, though single readings scatter. A potency beside an inconclusive call is a rough fit, not a confirmed value.

Test: qHTS for Inhibitors of human tyrosyl-DNA phosphodiesterase 1 (TDP1): qHTS in cells in presence of CPT; further: nearly all actives have a fitted effect of over 55% in size
Details: chicken DT40 Tdp1-/-;hTDP1 cells + 20 nM CPT, ATP luminescence, 48 h; activity change, negative = growth inhibition: at 46.2 µM (top of the series)
Procedure, shortened: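 Chicken DT40 Tdp1-/- cells stably complemented with human TDP1 were seeded at 400 cells/well in medium containing 20 nM camptothecin, exposed to pin-transferred compounds, and grown at 37 °C for at least 48 hr. Viability was read as ATP luminescence.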
On the % scale 0 is the no-effect control and ±100 the full control effect; potency means the concentration at half of the fitted maximal effect; tags describe the fitted curve by direction and shape.

Row | SMILES | activity change, negative = growth inhibition | Potency
1 | CC(NC(=S)NCc1ccccc1)C12CC3CC(CC(C3)C1)C2 (stereo not given) | inactive: 29.8% | –
2 | CC(=O)NCCNc1nc2cc(-c3ccccc3)sc2c(=O)n1C | – | inconclusive: 29.1 µM [inhibitor, single point]
3 | O=C(COc1ccccc1C(=O)Nc1ccccc1)Nc1ccccc1Cl | – | inconclusive: 35.5 µM [inhibitor, single point]
4 | Cc1nnc2c(NC(C)C)nc3ccccc3n12 | – | inconclusive: 29.1 µM [inhibitor, single point]
5 | Cn1cc(CN2CCN(Cc3ccc4c(c3)OCO4)CC2)c(-c2ccccc2F)n1 | – | inconclusive: 8.2 µM [inhibitor, partial curve]
6 | CC(=O)Nc1cccc(NC(=O)CSc2nc3c(c(=O)n(C)c(=O)n3C)n2C)c1 | inactive: 9.21% | –
7 | CC(=O)c1c(N2CCOCC2)[nH]c(-c2ccccc2)nc1=S | – | active: 16.4 µM
8 | COc1ccc(-c2nnc3ccc(SCc4ccccc4)nn23)cc1 | – | inconclusive: 14.6 µM [inhibitor, partial curve]
9 | Cc1ccc(NC(=O)CCN2C(=O)C3CCCCC3C2=O)cc1[N+](=O)[O-] (stereo not given) | inactive: 0.665% | –
10 | N#Cc1ccc(NC(=O)Nc2cccc(C#N)c2)cc1 | – | active: 6.51 µM
11 | COc1cc(-c2nc(Cn3nnc(C(=O)Nc4cc(C)cc(C)c4)c3C)c(C)o2)cc(OC)c1OC | – | inconclusive: 20.6 µM [inhibitor, single point]
12 | CC(C)(C)C(=O)Nc1cccc(-c2ccc[nH]2)n1 | – | inconclusive: 13 µM [inhibitor, partial curve]
13 | COc1cc(/C=C2/SC(=S)N(CCC(=O)Nc3cccnc3)C2=O)cc(OC)c1OC | – | inconclusive: 29.1 µM [inhibitor, single point]
14 | O=C(O)c1cccc(NC(=S)NC(=O)c2ccc3ccccc3c2)c1 | inactive: 1.29% | –
15 | CC1CCc2sc3ncnc(N4CCN(CCO)CC4)c3c2C1 (stereo not given) | inactive: -3.89% | –
16 | CCOC(=O)c1ccc(S(=O)(=O)NCC(c2ccc(N(C)C)cc2)c2c[nH]c3ccccc23)cc1 (stereo not given) | – | inconclusive: 29.1 µM [inhibitor, single point]
17 | CC(=O)C1=C(O)C(=O)N(CCc2ccccc2)C1c1ccccc1[N+](=O)[O-] (stereo not given) | inactive: 20.8% | –
18 | COc1ccc(/C=N/NC(=O)c2nc(-c3ccccc3)n(-c3ccccc3)n2)cc1 | inactive: 10.1% | –
19 | COCCn1c(SCC(=O)Nc2cc(C)on2)nc2c([nH]c3ccccc32)c1=O | – | inconclusive: 16.4 µM [inhibitor, single point]
20 | CCCCC(CC)CNC(=O)CCCn1c(=O)[nH]c2ccsc2c1=O (stereo not given) | – | active: 14.6 µM
21 | CN(C)CCCNc1oc(-c2ccccc2Cl)nc1S(=O)(=O)c1ccccc1 | – | inconclusive: 18.4 µM [inhibitor, single point]
22 | COc1ccc(C(=O)NC2=Nc3ccccc3N=C(C)C2c2ccccc2)cc1 (stereo not given) | inactive: -18% | –
23 | CCOC(=O)c1cc(-c2ccccc2)n(CC(=O)N(C)c2ccc(OC)cc2)c1C | – | inconclusive: 18.4 µM [inhibitor, single point]
24 | CCC(C(=O)NC1CCCC1)n1c(-c2ccnc3ccccc23)nc2ccccc21 (stereo not given) | – | inconclusive: 20.6 µM [inhibitor, single point]

Row | SMILES | activity change, negative = growth inhibition | Potency
25 | CC1=C(C)/C(=N\OC(=O)/C=C/c2ccccc2)C=CC1=O | – | active: 13 µM
26 | COc1ccccc1C1(CC(=O)Nc2nccs2)CCOC(C(C)C)C1 (stereo not given) | – | active: 5.17 µM
27 | COc1cc2c(=O)[nH]c3cc([N+](=O)[O-])ccc3c2cc1[N+](=O)[O-] | – | active: 8.2 µM
28 | COc1cccc(CNC(=O)c2nnn(CC(=O)Nc3cccc(C)c3)c2N)c1 | inactive: -5.84% | –
29 | COc1ccc(S(=O)(=O)NCC(c2ccco2)N2CCc3ccccc3C2)cc1 (stereo not given) | – | inconclusive: 25.9 µM [inhibitor, single point]
30 | CN(C)S(=O)(=O)c1ccc(C(=O)N2CC(=O)Nc3ccc(Br)cc3C2c2ccc(F)cc2)cc1 (stereo not given) | – | inconclusive: 29.1 µM [inhibitor, single point]
31 | Cc1ccc(CNC(=O)c2ccc(Cn3c(SCc4ccccc4F)nc4cccnc43)cc2)cc1 | – | inconclusive: 29.1 µM [inhibitor, single point]
32 | c1ccc(CCCNc2ncnc3nc[nH]c23)cc1 | – | inconclusive: 708 nM [inhibitor, full curve] and inconclusive: 16.4 µM [inhibitor, single point]
33 | N#Cc1c(NC(=O)CSc2ncn[nH]2)sc2c1CCCCC2 | inactive: -14.6% | –
34 | COc1ccc(-c2cc(CNc3nc(NC(C)C)nc4cc(-c5ccccc5)sc34)on2)cc1 | – | active: 4.11 µM
35 | CCCN(CC1CC1)C(=O)CSc1ncnc2sc(C)c(C)c12 | – | inconclusive: 14.6 µM [inhibitor, partial curve]
36 | CC(Oc1ccc2c3c(c(=O)oc2c1)CCC3)C(=O)NCCCn1ccnc1 (stereo not given) | inactive: -23.9% | –
37 | CCN(CC)C(=O)c1sc2c(c1C)c(=O)n(-c1ccccc1)c(=O)n2CC(=O)Nc1ccc(C)cc1C | – | inconclusive: 25.9 µM [inhibitor, single point]
38 | Cc1cc(C)cc(NC2=CC(c3cccc(F)c3)N(c3cc(C)cc(C)c3)C2=O)c1 (stereo not given) | inconclusive: -20.5% [inhibitor] | –
39 | O=C(NCC1CCCO1)c1cc2n(n1)C(C(F)(F)F)CC(c1ccc(Br)cc1)N2 (stereo not given) | – | inconclusive: 11.6 µM [inhibitor, single point]
40 | O=C(c1cc(-c2ccccn2)nc2ccc(Cl)cc12)N1CCN(CCc2ccccc2)CC1 | – | inconclusive: 29.1 µM [inhibitor, single point]
41 | CCCCOC(=O)c1c(C)oc2ccc(NS(=O)(=O)c3ccc4c5c(cccc35)C(=O)N4)cc12 | – | inconclusive: 29.1 µM [inhibitor, single point]
42 | CCN1CCN(c2c(S(=O)(=O)c3ccc(C)c(C)c3)cnc3cc(OC)c(OC)cc23)CC1 | – | active: 14.6 µM
43 | Cc1ccc(C)c(NC(=O)c2cc(S(=O)(=O)N3CCOCC3)cn2C)c1 | – | active: 14.6 µM
44 | FC(F)(F)c1ccc(Cl)c(NC(=S)N/N=C/c2ccccc2Cl)c1 | – | inconclusive: 18.4 µM [inhibitor, single point]
45 | COc1ccc(NC(=O)c2ccco2)cc1NC(=O)c1cccc(F)c1 | inactive: -23% | –
46 | CCOc1ccc(CC(=O)NCCc2sc3nc(-c4ccc(OC)cc4)nn3c2C)cc1 | – | inconclusive: 29.1 µM [inhibitor, single point]
47 | CCCCCCC[C@@H](C/C=C/CCC(=O)N(C)C/C(=C/Cl)C/C(=C\C(=O)N1CC(OC)=CC1=O)OC)OC | – | active: 2.31 µM
48 | CCCCN(CC)CCCNC(=O)c1cc2c(=O)n(C)c3ccccc3c2n1C | – | inconclusive: 20.6 µM [inhibitor, single point]

Row | SMILES | activity change, negative = growth inhibition | Potency
49 | Cc1ccc(-n2ncc3c(=O)n(CC(=O)N4CCN(C(=O)c5ccco5)CC4)cnc32)cc1 | inactive: -5.57% | –
50 | CCCCCCCCCCOC(=O)Cn1c(COc2ccccc2OC)[n+](C)c2ccccc21 | – | active: 1.03 µM
51 | Cc1ccc(C(=O)N2CCCC2)c(F)c1F | – | inconclusive: 20.6 µM [inhibitor, single point]
52 | CCc1nc2ccc(C(=O)N(C)Cc3ccccc3)cn2c1N(C)Cc1ccc(OC)cc1 | – | active: 11.6 µM
53 | O=C(COC(=O)c1nc(Cl)c(Cl)c(Cl)c1Cl)c1ccc[nH]1 | – | inconclusive: 18.4 µM [inhibitor, single point]
54 | Cc1ccc(/C=N\NC(=O)CCc2n[nH]c(=O)[nH]c2=O)o1 | – | inconclusive: 29.1 µM [inhibitor, single point]
55 | CCc1nc2c(c(SC)nn2-c2ccccc2)c(N)c1C(=O)OC | inconclusive: -30.6% [inhibitor] | –
56 | CCC1(CC)NC(=O)N(Cc2nc3ccccc3s2)C1=O | inactive: 8.86% | –
57 | CC(C)=N/N=c1\scc(C)n1Cc1ccco1 | – | inconclusive: 29.1 µM [inhibitor, single point]
58 | O=C(Nc1ccnn1C1CCN(Cc2cccc(F)c2F)CC1)C1CCCC1 | inactive: 1.81% | –
59 | CCOC(=O)N1CCN(CC(O)COC2CC(C)CC(C)(C)C2)CC1 (stereo not given) | – | inconclusive: 18.4 µM [inhibitor, single point]
60 | CCN(CC)S(=O)(=O)c1nnc(NC(=O)COc2ccc(Cl)cc2)s1 | – | inconclusive: 25.9 µM [inhibitor, single point]
61 | COc1ccc2c(c1OC)c(=O)n1c3ccc(OC(C)C(=O)NCCN4CCOCC4)cc3c3ccnc2c31 (stereo not given) | – | active: 16.4 µM
62 | CCCn1nc([N+](=O)[O-])c(C(C#N)c2nc3ccccc3o2)c(Cl)c1=O (stereo not given) | – | inconclusive: 9.2 µM [inhibitor, partial curve, poor fit]
63 | Cc1cc2n(n1)C(c1ccccc1)Nc1ccccc1-2 (stereo not given) | – | inconclusive: 20.6 µM [inhibitor, single point]
64 | CCN(CC)CCNC(=O)c1ccc2c(c1)sc1nc(-c3ccc(F)cc3)cn12 | – | active: 5.8 µM
65 | Cc1cc(C)c(C(=O)COC(=O)C2CC3CCCC(C2)C3=O)c(C)c1 (stereo not given) | – | inconclusive: 14.6 µM [inhibitor, single point]
66 | COc1ccc(NC(=O)c2cc(C3CCCCN3C(=O)CCc3ccccc3)on2)c(C)c1 (stereo not given) | – | inconclusive: 16.4 µM [inhibitor, partial curve]
67 | O=C(Nc1ccc(N2CCN(C(=O)c3cccs3)CC2)cc1)c1ccc(Br)o1 | – | inconclusive: 18.4 µM [inhibitor, single point]
68 | CSc1nc(SCC(=O)NCc2ccco2)c2c3c(sc2n1)COC(C)(C)C3 | – | active: 13 µM
69 | COc1ccc(C(CNC(=O)COc2ccc(Cl)c(C)c2)N2CCOCC2)cc1 (stereo not given) | – | active: 20.6 µM
70 | CCOc1ccc(NC(=O)c2nc(S(=O)(=O)Cc3ccccc3)ncc2Cl)cc1 | – | active: 0.316 µM
